In PubChem BioAssay AID1671188 (National Center for Advancing Translational Sciences (NCATS), 2021):
Hit rate of the full screen: of about 100,000 compounds, about 250 (0.25%) were called active. This list was built around the results that the source calls inconclusive (neither active nor inactive); the mix of calls is not that of the screen. Calls come from the whole dose curve; as a rule, active = well fitted inhibition curve with a large enough effect; inconclusive = small, poorly fitted or top-dose-only effect; inactive = flat fitted curve, though single readings scatter. Potencies of inconclusive entries are left out as doubtful fits.

biological target: Alanine aminotransferase 2 (Homo sapiens) (UniProt Q8TD30); test: Primary qHTS assay for inhibitors of Glutamate pyruvate transaminase 2 (GPT2); settings: Recombinant GPT2, coupled pyruvate oxidase/HRP Amplex Red fluorescence; series mostly up to 57.7 µM; note: nearly all actives have a fitted effect of over 60% in size
Sequence of UniProt Q8TD30 (Q8TD30 whole entry, looked up): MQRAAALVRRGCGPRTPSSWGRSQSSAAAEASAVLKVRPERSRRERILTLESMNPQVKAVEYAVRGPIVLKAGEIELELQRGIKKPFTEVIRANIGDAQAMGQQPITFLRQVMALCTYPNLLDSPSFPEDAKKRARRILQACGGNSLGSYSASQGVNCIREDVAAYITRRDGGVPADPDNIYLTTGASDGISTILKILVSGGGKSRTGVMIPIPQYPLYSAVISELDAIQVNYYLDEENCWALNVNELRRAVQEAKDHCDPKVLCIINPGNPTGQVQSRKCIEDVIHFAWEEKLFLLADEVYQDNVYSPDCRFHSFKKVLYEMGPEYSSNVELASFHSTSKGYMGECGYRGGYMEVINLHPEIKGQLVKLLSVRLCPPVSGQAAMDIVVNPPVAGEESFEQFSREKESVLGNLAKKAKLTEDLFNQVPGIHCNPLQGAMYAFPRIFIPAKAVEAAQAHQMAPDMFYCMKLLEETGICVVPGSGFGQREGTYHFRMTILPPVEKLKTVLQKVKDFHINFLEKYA
Procedure, shortened: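 Fluorescence read-out: pyruvate from GPT2 turnover coupled to pyruvate oxidase, HRP and Amplex Red (0.2mM ThPP, 0.2U/mL PO and HRP, 50uM Amplex final). Substrates 250uM a-KG, 2mM L-alanine; enzyme 10ng/uL; 30 min RT.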
Potency is the fitted concentration of half-maximal effect; tags give direction and shape of the fitted curve.

Q: `O=C(O)CCCC(=O)N1CCN2C(=O)c3cc(Br)ccc3NC(=O)[C@@H]2C1` was tested. Which Potency did it give?
A: Its Potency is inconclusive [inhibitor, single point].

Q: How did the Potency turn out when `COc1cc(N2CCC(N3CCN(C)CC3)CC2)ccc1Nc1ncc(Cl)c(-c2c[nH]c3ccccc23)n1` was run?
A: Its Potency is inconclusive [inhibitor, single point].

Q: For `CC(NC(=O)C1(c2ccc(NS(C)(=O)=O)cc2)CCCCC1)c1ccc(F)cc1` (stereo unspecified), which Potency is on record?
A: Its Potency is inconclusive [inhibitor, partial curve, poor fit].

Q: For `COC(=O)[C@@H]1Cc2c([nH]c3ccccc23)[C@H]2C[C@@H](NCCNC(C)=O)C[C@@H](c3ccc(C(F)(F)F)cc3)N21`, which Potency is on record?
A: Its Potency is inconclusive [inhibitor, partial curve, poor fit].

Q: How did the Potency turn out when `CC(C)=CCc1cc(C(O)C2NC(=O)CNC(=O)C(Cc3c[nH]c4ccccc34)NC(=O)C3CCCN3C(=O)CNC(=O)C(C(C)C)NC(=O)CNC2=O)ccc1O` (stereo unspecified) was run?
A: Its Potency is “inactive”.

Q: For `CCc1nc(CN2CCC(=O)N(Cc3ccc(F)cc3)C(C(C)C)C2)no1` (stereo unspecified), which Potency is on record?
A: The Potency was inconclusive [inhibitor, single point].

Q: How did the Potency turn out when `O=C1CCN(C(=O)c2cccc3[nH]ccc23)CCCCCCN1` was run?
A: The Potency was inconclusive [inhibitor, partial curve, poor fit].

Q: `O=C(NCC1CCOCC1)C1CC(=O)N(c2n[nH]c3cc(Br)ccc23)C1` (stereo unspecified) was tested. Which Potency did it give?
A: Its Potency is inconclusive [inhibitor, single point].

Q: How did the Potency turn out when `CN1CCC(N2C[C@H](O)C[C@H]2c2nc(CS(=O)(=O)c3ccc(F)cc3)no2)CC1` was run?
A: The Potency was inconclusive [inhibitor, single point].

Q: `NS(=O)(=O)Nc1ncnc(OCCOc2ncc(Br)cn2)c1-c1ccc(Br)cc1` was tested. Which Potency did it give?
A: Its Potency is inconclusive [inhibitor, partial curve, poor fit].

Q: `CCN(C(=O)CN1C(=O)NC2(CCC(C(C)(C)C)CC2)C1=O)c1cccc(C)c1` (stereo unspecified) was tested. Which Potency did it give?
A: The Potency was inconclusive [inhibitor, full curve].

Q: `O=C(c1cc(COc2ccc3c(c2)OCO3)[nH]n1)N1CCCC1c1ccccn1` (stereo unspecified) was tested. Which Potency did it give?
A: The Potency was “inactive”.

Q: How did the Potency turn out when `COC(=O)c1ccc2c(c1)nc(NC(=O)c1ccccc1)n2CCCc1ccccc1` was run?
A: Its Potency is “inactive”.

Q: With `O=C(c1cc(F)ccc1F)N1CCCC(Cc2nncn2CC2CC2)C1` (stereo unspecified) as the molecule, how does the Potency read?
A: Its Potency is “inactive”.

Q: Which Potency does the source give for `CCc1nnc2ccc(N3CCN(C(C)C)CC3)nn12` here?
A: The Potency was “inactive”.

Q: With `CC(C)NC(=O)Cc1cccn1-c1ccc(F)cc1` as the molecule, how does the Potency read?
A: Its Potency is inconclusive [inhibitor, single point].

Q: Which Potency does the source give for `CC(=O)Oc1c(-c2ccc(NC(=O)c3ccco3)cc2)c(C2CC2)nn1-c1cccc(C)c1` here?
A: The Potency was inconclusive [inhibitor, single point].

Q: Which Potency does the source give for `CC(=O)NCCc1ccc(CC2CCN(S(=O)(=O)N(C)C)CC2)cc1` here?
A: Its Potency is “inactive”.

Q: How did the Potency turn out when `COCCN1CCCCCC(O)c2cc(C(=O)N(C)Cc3cccnc3)ccc21` (stereo unspecified) was run?
A: The Potency was “inactive”.

Q: `Cc1ccc(OC2(C(=O)O)CCN(Cc3ccc(CO)o3)CC2)cc1` was tested. Which Potency did it give?
A: The Potency was inconclusive [inhibitor, single point].

Q: `CC1(COc2ccccc2)COc2ccc(C(=O)NCCc3ccccc3)cc2N1` (stereo unspecified) was tested. Which Potency did it give?
A: Its Potency is inconclusive [inhibitor, single point].

Q: How did the Potency turn out when `COc1ccccc1N1CCN(CCC(=O)N(C)Cc2ccccc2)CC1=O` was run?
A: Its Potency is “inactive”.

Q: For `CN(C)c1ccc(NC(=O)Cn2nc3n(c2=O)CCCCC3)cc1`, which Potency is on record?
A: The Potency was inconclusive [inhibitor, full curve].

Q: How did the Potency turn out when `COC(=O)[C@@H]1Cc2c([nH]c3ccccc23)[C@H]2C[C@@H](NCCNC(C)=O)C[C@@H](c3ccc(-c4ccccc4)cc3)N21` was run?
A: Its Potency is “inactive”.

Q: How did the Potency turn out when `O=C1NCCCCCCN(Cc2ccncc2)[C@@H]2CN(Cc3ccccn3)CC[C@@H]12` was run?
A: The Potency was inconclusive [inhibitor, full curve, poor fit].

Q: How did the Potency turn out when `Cc1onc(-c2cnn(C)c2NCCc2ccccc2)c1C(=O)N1CCC(F)(F)CC1` was run?
A: Its Potency is “inactive”.

Q: Which Potency does the source give for `CC(C)(C)C(=O)N[C@H]1CO[C@H]2[C@@H]1OC[C@@H]2Nc1nccc(-c2ccc(-c3ccccc3)cc2)n1` here?
A: Its Potency is “inactive”.

Q: With `O=C(c1ccc(C2CCCN2)s1)N1CCc2nc[nH]c2C1` (stereo unspecified) as the molecule, how does the Potency read?
A: Its Potency is “inactive”.

Q: `O=C1COCCN1c1cc(-c2cnc3[nH]ccc3c2)cn2cncc12` was tested. Which Potency did it give?
A: The Potency was inconclusive [inhibitor, single point].

Q: For `Cc1cnn(CCC(=O)NC2CCN(c3ccc(=O)n(C)n3)CC2)c1`, which Potency is on record?
A: The Potency was inconclusive [inhibitor, partial curve, poor fit].

Q: How did the Potency turn out when `CCCN1CCN(C(=O)c2ccnc(C(C)C)n2)[C@H]2CS(=O)(=O)C[C@H]21` was run?
A: The Potency was inconclusive [inhibitor, single point].

Q: For `CC(C)C[C@@H]1N[C@H](C(=O)NC2CCC2)Cc2cn(Cc3nccn3C)c3cccc1c23`, which Potency is on record?
A: The Potency was inconclusive [inhibitor, partial curve, poor fit].

Q: How did the Potency turn out when `O[C@@H]1C[C@@H](c2nc(-c3ccc(OC(F)(F)F)cc3)no2)N(C2CCOCC2)C1` was run?
A: The Potency was inconclusive [inhibitor, single point].

Q: Which Potency does the source give for `CN1CCN(C(=O)N2CCC3(CCCN(C4CCOCC4)C3=O)C2)CC1` (stereo unspecified) here?
A: Its Potency is inconclusive [inhibitor, single point].

Q: Which Potency does the source give for `CCCc1noc(-c2cn(C3CCN(C(=O)c4ccc(OC)cc4OC)CC3)nn2)n1` here?
A: The Potency was “inactive”.

Q: Which Potency does the source give for `Cc1ccc(C(=O)N2CCC3(CC2)C(=O)N(CC(=O)N(C)C)CN3c2ccccc2)cc1` here?
A: The Potency was inconclusive [inhibitor, single point].

Q: Which Potency does the source give for `O=C(C1CCCC1)N1CC2CC(C1)[C@H]1CCCC(=O)N1C2` (stereo partly specified) here?
A: Its Potency is “inactive”.

Q: How did the Potency turn out when `CN(Cc1ccccc1)C(=O)C[C@@H]1c2nc(NC(=O)c3c(F)cccc3F)sc2C[C@@H]2[C@](C)(CO)[C@H](O)CC[C@]21C` was run?
A: Its Potency is “inactive”.

Q: For `CCOC(=O)C1(Cc2ccccc2F)CCCN(C(=O)c2c(C)nc3sccn23)C1` (stereo unspecified), which Potency is on record?
A: Its Potency is inconclusive [inhibitor, single point].

Q: How did the Potency turn out when `CCCCn1c(=O)[nH]c2cccnc21` was run?
A: The Potency was inconclusive [inhibitor, partial curve, poor fit].

Q: With `FC(F)(F)c1ccc(N2C3CCC2CN(CC2CCCC2)C3)cc1` as the molecule, how does the Potency read?
A: Its Potency is inconclusive [inhibitor, partial curve, poor fit].
